This assay addresses Genome polyprotein (dengue virus type 2) (UniProt P29990).
The mark [1] stands for this setting: Thailand/16681/1984, Concentration 25.0 uM, Number of replicates 1.0.

The campaign covered roughly 2,000 compounds. About 110 (5.5%) showed an effect of 50% or more. Some of the results follow.

As to `CN(C[C@H](O)c1ccc(O)cc1)C(=O)C1CCN(c2ccc(C=O)cc2)CC1`, the inhibition under setting [1] was 13.7%.

Turning to `Cn1ccnc1CC(=O)N[C@@]1(C)CCCN(C(=O)c2cc(F)c3[nH]nnc3c2)C1`, the inhibition is, setting by setting: (Thailand/16681/1984, Concentration 49.5 uM, Number of replicates 2.0, Standard deviation 0.29553266916060045 %) -0.611%; (Thailand/16681/1984, Concentration 99.01 uM, Number of replicates 2.0, Standard deviation 0.07184219034594187 %) 0.098%; (Thailand/16681/1984, Concentration 198.0 uM, Number of replicates 2.0, Standard deviation 0.3570339194901519 %) 0.729%.

For the molecule `N#C[C@H]1CCCN(Cc2c[nH]c3ccccc23)C1`, the inhibition by setting is: (Thailand/16681/1984, Concentration 49.5 uM, Number of replicates 2.0, Standard deviation 3.56911221584767 %) -1.34%; (Thailand/16681/1984, Concentration 99.01 uM, Number of replicates 2.0, Standard deviation 2.9055373129077813 %) -0.332%; (Thailand/16681/1984, Concentration 198.0 uM, Number of replicates 2.0, Standard deviation 3.9015387821284335 %) 2%.

As for `O=Cc1ccc(N2CCC(C(=O)N3CCN(C(=O)C4CC4)CC3)CC2)cc1`, the inhibition under setting [1] came to 12.5%.

For the molecule `c1cnc2c(C3CCN(Cc4ccc5[nH]cnc5c4)CC3)c[nH]c2c1`, the inhibition runs as follows: (Thailand/16681/1984, Concentration 49.5 uM, Number of replicates 2.0, Standard deviation 3.3849989343370446 %) -4.37%; (Thailand/16681/1984, Concentration 99.01 uM, Number of replicates 2.0, Standard deviation 2.5993212395132153 %) -4.74%; (Thailand/16681/1984, Concentration 198.0 uM, Number of replicates 2.0, Standard deviation 2.013738658274251 %) -3.37%.

Take `NCc1cccc(NC(=O)[C@H]2CC(F)(F)CN2C(=O)OCc2ccccc2)c1`: the inhibition (Thailand/16681/1984, Concentration 49.5 uM, Number of replicates 2.0, Standard deviation 3.8817212285914895 %) was -3.13%; the inhibition (Thailand/16681/1984, Concentration 99.01 uM, Number of replicates 2.0, Standard deviation 4.048573795130085 %) is -2.21%; the inhibition (Thailand/16681/1984, Concentration 198.0 uM, Number of replicates 2.0, Standard deviation 4.090127173867097 %) is -1.49%.

On to `O=C(O)c1cc(Cl)ccc1NS(=O)(=O)c1ccc(Br)cc1`, for which the inhibition reads like this: (Thailand/16681/1984, Concentration 49.5 uM, Number of replicates 2.0, Standard deviation 1.3795853744617563 %) 7.98%; (Thailand/16681/1984, Concentration 99.01 uM, Number of replicates 2.0, Standard deviation 2.3616490916140984 %) 19.6%; (Thailand/16681/1984, Concentration 198.0 uM, Number of replicates 2.0, Standard deviation 0.9946440456706616 %) 67%.

Take `O=Cc1ccc(N2CCC(C(=O)N3CCN(C(=O)c4ccccc4Cl)CC3)CC2)cc1`: the inhibition under setting [1] is 12.5%.

Take `COc1cc(Cl)c(C)cc1NC(=O)C1CCN(c2ccc(C=O)cc2)CC1`: the inhibition under setting [1] came to 13.9%.

With `O=Cc1ccc(N2CCC(C(=O)NC[C@H](c3cccnc3)N3CCOCC3)CC2)cc1`, the inhibition under setting [1] worked out at 14.4%.

Regarding `CNC(=O)c1cc(Cl)ccc1NC(=O)CCNC(=O)c1cccc(Cl)c1`, the inhibition (Thailand/16681/1984, Concentration 49.5 uM, Number of replicates 2.0, Standard deviation 0.501524232219261 %) is -3.63%; the inhibition (Thailand/16681/1984, Concentration 99.01 uM, Number of replicates 2.0, Standard deviation 0.36152285388450167 %) was -3.13%; the inhibition (Thailand/16681/1984, Concentration 198.0 uM, Number of replicates 2.0, Standard deviation 0.5883606907585598 %) was -1.33%.

Consider `c1cnc(N2CCOCC2)c(CN2CCC(c3c[nH]c4cccnc34)CC2)c1`, for which the inhibition was -2.55% (Thailand/16681/1984, Concentration 49.5 uM, Number of replicates 2.0, Standard deviation 3.227735513404527 %); -3.1% (Thailand/16681/1984, Concentration 99.01 uM, Number of replicates 2.0, Standard deviation 3.59276570158156 %); -3.02% (Thailand/16681/1984, Concentration 198.0 uM, Number of replicates 2.0, Standard deviation 3.7954179066124296 %).

With `CNC(=O)c1cn(C[C@H]2CCCN2C(=O)c2cccc3ncsc23)nn1`, the inhibition runs as follows: (Thailand/16681/1984, Concentration 49.5 uM, Number of replicates 2.0, Standard deviation 0.1358580059513503 %) 0.293%; (Thailand/16681/1984, Concentration 99.01 uM, Number of replicates 2.0, Standard deviation 0.18464096005398162 %) 0.707%; (Thailand/16681/1984, Concentration 198.0 uM, Number of replicates 2.0, Standard deviation 0.18359188284769695 %) 0.879%.

Regarding `O=Cc1ccc(N2CCC(C(=O)Nc3ccc(C(F)(F)F)cc3)CC2)cc1`, under setting [1], the inhibition was found to be 13.8%.

On to `COc1ccc2c(N)nccc2c1`, for which the inhibition is -6.76% (Thailand/16681/1984, Concentration 49.95 uM, Number of replicates 2.0, Standard deviation 7.078594311778854 %) and -7.47% (Thailand/16681/1984, Concentration 99.9 uM, Number of replicates 2.0, Standard deviation 6.180300237733915 %).

Take `O=Cc1ccc(N2CCC(C(=O)NCCOCc3ccccc3)CC2)cc1`: the inhibition under setting [1] was found to be 12.8%.

With `Cc1cc(CO)c2cccc(CC(=O)N3CC[C@@H](O)C3)c2n1`, the inhibition by setting is: (Thailand/16681/1984, Concentration 49.95 uM, Number of replicates 2.0, Standard deviation 0.5275777280947552 %) -6.57%; (Thailand/16681/1984, Concentration 99.9 uM, Number of replicates 2.0, Standard deviation 0.031156299118405218 %) -2.69%.

On to `O=Cc1ccc(N2CCC(C(=O)Nc3ccc(O)cc3[N+](=O)[O-])CC2)cc1`, for which the inhibition under setting [1] was found to be 24.5%.

Regarding `O=C(O)C1CCN(Cc2c[nH]c3ccccc23)CC1`, the inhibition (Thailand/16681/1984, Concentration 49.5 uM, Number of replicates 2.0, Standard deviation 1.605007793722273 %) is -4.66%; the inhibition (Thailand/16681/1984, Concentration 99.01 uM, Number of replicates 2.0, Standard deviation 1.896018464285867 %) was -4.9%; the inhibition (Thailand/16681/1984, Concentration 198.0 uM, Number of replicates 2.0, Standard deviation 2.2003780532972255 %) was -4.86%.

Take `O=Cc1ccc(N2CCC(C(=O)Nc3nnc(Cl)cc3Br)CC2)cc1`: under setting [1], the inhibition worked out at 33%.

For the molecule `c1ccc2c([C@H]3CCN(CC[C@H]4CCCO4)C3)c[nH]c2c1`, the inhibition was -0.151% (Thailand/16681/1984, Concentration 49.5 uM, Number of replicates 2.0, Standard deviation 0.7413707781799035 %); 0.861% (Thailand/16681/1984, Concentration 99.01 uM, Number of replicates 2.0, Standard deviation 0.23682680855853402 %); 2.17% (Thailand/16681/1984, Concentration 198.0 uM, Number of replicates 2.0, Standard deviation 0.5777055881333691 %).

With `NCc1cccc(NC(=O)[C@H]2COC3(CCOCC3)N2C(=O)OCc2ccccc2)c1`, the inhibition (Thailand/16681/1984, Concentration 49.5 uM, Number of replicates 2.0, Standard deviation 0.039998033586414614 %) was -2.12%; the inhibition (Thailand/16681/1984, Concentration 99.01 uM, Number of replicates 2.0, Standard deviation 0.28658356559600956 %) is -1.66%; the inhibition (Thailand/16681/1984, Concentration 198.0 uM, Number of replicates 2.0, Standard deviation 0.4465755418909861 %) was -0.337%.

In the case of `O=Cc1ccc(N2CCC(C(=O)NCCCN3CCS(=O)(=O)CC3)CC2)cc1`, the inhibition under setting [1] worked out at 14.6%.

In the case of `O=Cc1ccc(N2CCC(C(=O)N3CCCC[C@@H]3Cc3ccccc3)CC2)cc1`, the inhibition under setting [1] turned out to be 12.9%.

`CC(C)(CO)NC(=O)c1cc(Cl)cc(NC(=O)CCNc2cc(Cl)cc(Cl)c2)c1`: the inhibition by setting is: (Thailand/16681/1984, Concentration 49.5 uM, Number of replicates 2.0, Standard deviation 0.7365141546791447 %) -1.53%; (Thailand/16681/1984, Concentration 99.01 uM, Number of replicates 2.0, Standard deviation 2.0131860287965764 %) 5.29%; (Thailand/16681/1984, Concentration 198.0 uM, Number of replicates 2.0, Standard deviation 4.301058663672598 %) 4.92%.

On to `CC(C)Nc1nc2cc(NC(=O)[C@@H](N)c3ccccc3)ccc2[nH]1`, for which the inhibition (Thailand/16681/1984, Concentration 49.5 uM, Number of replicates 2.0, Standard deviation 0.5151064756203817 %) was -3.2% and the inhibition (Thailand/16681/1984, Concentration 99.01 uM, Number of replicates 2.0, Standard deviation 1.4545723729827629 %) is -6.38%.

In the case of `COCCn1cccc(C(=O)Nc2ccncc2C)c1=O`, the inhibition is, setting by setting: (Thailand/16681/1984, Concentration 49.5 uM, Number of replicates 2.0, Standard deviation 0.5368463890647557 %) 0.774%; (Thailand/16681/1984, Concentration 99.01 uM, Number of replicates 2.0, Standard deviation 0.49107619706080435 %) 6.65%; (Thailand/16681/1984, Concentration 198.0 uM, Number of replicates 2.0, Standard deviation 0.8434117123195074 %) 14.6%.

`O=Cc1ccc(N2CCC(C(=O)Nc3ccncc3Br)CC2)cc1`: the inhibition under setting [1] was 11.6%.

For the molecule `CCOc1ccc(CNC(=O)C2CCN(c3ccc(C=O)cc3)CC2)cc1`, the inhibition under setting [1] was determined as 11.3%.

As for `COC(=O)c1cncc(OCc2cc(OC)nc(N3CCNCC3)n2)c1`, the inhibition was -2.43% (Thailand/16681/1984, Concentration 49.5 uM, Number of replicates 2.0, Standard deviation 4.08627143265135 %); 3.39% (Thailand/16681/1984, Concentration 99.01 uM, Number of replicates 2.0, Standard deviation 3.6715835957511156 %); 18.3% (Thailand/16681/1984, Concentration 198.0 uM, Number of replicates 2.0, Standard deviation 1.8331343547832488 %).

(Values after ChEMBL document CHEMBL5606460, “ASAP - DENV-2 NS2B-NS3 protease fluorescence single point” (2024).)
